# Experimental data from PubChem BioAssay AID1259400 (National Center for Advancing Translational Sciences (NCATS), 2018).
# “And” between values parts separate entries of the source, which are not always exact repeats. Equal entries are not always repeated. In all, about 350,000 compounds went through this assay and about 2,100 (0.6%) were called active. This list was built around the results that the source calls inconclusive (neither active nor inactive); the mix of calls is not that of the screen.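 The calls were made as follows: active = activity change of -60% or lower, but not beyond a set lower limit; inconclusive = change between -60% and -40%, or beyond the set limit; inactive = change above -40%.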
# Target: Relaxin receptor 1 (Homo sapiens) (UniProt Q9HBX9)
# Test: qHTS Assay for Antagonists of the Relaxin Receptor RXFP1
# Conditions: HEK293-RXFP1, relaxin-stimulated cAMP HTRF, 30 min; at 57.5 µM; active compounds read low
# % is scaled to controls: 0 for no effect and ±100 for the full control effect.
# Chain of UniProt Q9HBX9 (Q9HBX9 whole entry, looked up): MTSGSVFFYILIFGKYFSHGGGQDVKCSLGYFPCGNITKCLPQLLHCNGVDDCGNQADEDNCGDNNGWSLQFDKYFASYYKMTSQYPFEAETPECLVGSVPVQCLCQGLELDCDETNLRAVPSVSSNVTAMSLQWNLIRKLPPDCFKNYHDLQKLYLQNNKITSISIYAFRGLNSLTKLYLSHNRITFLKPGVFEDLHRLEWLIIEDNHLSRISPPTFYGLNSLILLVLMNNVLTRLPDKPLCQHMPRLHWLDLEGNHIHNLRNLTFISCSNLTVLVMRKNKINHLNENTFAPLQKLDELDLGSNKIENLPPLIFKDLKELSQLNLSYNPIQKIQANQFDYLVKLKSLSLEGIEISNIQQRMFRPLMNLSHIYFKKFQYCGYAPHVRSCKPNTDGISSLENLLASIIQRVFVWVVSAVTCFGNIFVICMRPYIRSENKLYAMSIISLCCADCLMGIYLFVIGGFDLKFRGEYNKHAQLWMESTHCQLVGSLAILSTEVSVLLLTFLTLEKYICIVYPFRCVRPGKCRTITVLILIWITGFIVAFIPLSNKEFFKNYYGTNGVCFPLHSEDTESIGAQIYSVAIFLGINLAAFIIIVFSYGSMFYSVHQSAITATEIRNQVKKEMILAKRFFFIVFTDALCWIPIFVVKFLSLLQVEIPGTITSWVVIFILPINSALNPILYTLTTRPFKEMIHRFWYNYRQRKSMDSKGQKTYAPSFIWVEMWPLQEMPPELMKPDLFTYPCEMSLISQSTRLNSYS
row,SMILES,"activity change, negative = inhibition"
1,Cn1c(=NC(=O)CS(=O)(=O)c2ccccc2)sc2cc([N+](=O)[O-])ccc21,inconclusive: -52.5%
2,CC/C(=N/O)C(=O)c1ccc(Br)cc1,active: -87.7%
3,Cc1ccc2[nH]c3c(N4CCN(Cc5ccccc5)CC4)ncnc3c2c1,inconclusive: -42.1%
4,COc1ccc(N=C2O/C(=C/c3sc(=S)n(CC4CCCO4)c3O)N=C2C#N)cc1 (stereo not drawn),active: -88.3%
5,COc1cccc(NC(=O)c2c(C)nn(-c3ccccc3)c2Cl)c1,inactive: -6.28%
6,COc1ccc(N(CC(=O)NCCC(C)C)C(=O)c2snc(C(=O)NC3CCCCC3)c2N)c(OC)c1,inconclusive: -41.1%
7,CCOC(=O)COc1coc(CN2CCN(c3ccccc3)CC2)cc1=O,inconclusive: -43.8%
8,CCCCN1C(C(=O)c2ccccc2)=C(OC(C)=O)c2ccccc2S1(=O)=O,active: -62.8%
9,COc1ccccc1NC(=O)CSC1=Nc2ccccc2C2=NC(CCC(=O)NCc3cccs3)C(=O)N12 (stereo not drawn),inconclusive: -59.6%
10,Cc1ccc(CNC(=O)c2ccc(CSCc3ccccc3C)o2)cc1,inconclusive: -43.4%
11,COc1ccccc1/C=N/Nc1cc(N(C)C)nc(N(C)C)n1,inconclusive: -55.7%
12,O=C(O)CC/C(=C\c1cc([N+](=O)[O-])ccc1Cl)c1nc2ccccc2s1,inactive: -0.978%
13,Cc1ccc(S(=O)(=O)n2cccc2/C=C/[N+](=O)[O-])cc1,inconclusive: -46.4%
14,O=c1onc(-c2ccccc2)n1-c1cc(Cl)cc(Cl)c1,inconclusive: -57.2%
15,CC1Cc2cc(/C(O)=C3/C(=O)C(=O)N(Cc4cccnc4)C3c3cccc(O)c3)ccc2O1 (stereo not drawn),inconclusive: -53%
16,CN(C(=O)c1cncc(Br)c1)c1c(N)n(Cc2ccccc2)c(=O)[nH]c1=O,active: -69.5%
17,O=C(CSc1n[nH]c(-c2cccs2)n1)N1CCN(S(=O)(=O)c2ccccc2)CC1,inactive: -9.43%
18,Cc1c(CCNC(=O)c2ccc(Br)o2)sc2nc(-c3ccc(F)cc3)nn12,inconclusive: -51.1%
19,Cc1ccc(C)c(N2CCN(CCCNC(=O)c3cnn(-c4ccccc4Cl)c3C3CCN(C(=O)OC(C)(C)C)CC3)CC2)c1,inconclusive: -56.8%
20,O=C(CSCc1cccc(Br)c1)N=Nc1c(O)[nH]c2ccccc12,inactive: -5.07%
21,O=S(=O)(Nc1c(S(=O)(=O)c2ccccc2)c2nc3ccccc3nc2n1C1CCCCC1)c1ccccc1,active: -71.6%

row,SMILES,"activity change, negative = inhibition"
1,COc1cc(-c2cc(OC)c3c(C)oc(C)c3c(=O)c2)ccc1OC(=O)c1ccccc1Cl,inconclusive: -52.3%
2,CC(C)/C(C=O)=C(/NC1CCCCC1)c1ccccc1,active: -63%
3,CCOc1cc(OCC)c(C(=O)CCC(=O)O)cc1OCC,inconclusive: -40.6%
4,CC(C)(C)OC(=O)N1CCC(c2c(C(=O)NCCN3CCC(Cc4ccccc4)CC3)cnn2-c2ccc(F)cc2)CC1,inconclusive: -54.6%
5,CCc1ccc(/C=C2/Sc3ccccc3N(CC(=O)NCC3CCCO3)C2=O)cc1 (stereo not drawn),inconclusive: -40.8%
6,Cc1cc(C)c(C)c(S(=O)(=O)NCCCN2CCOCC2)c1C,inconclusive: -41.7%
7,O=C(CCS(=O)(=O)c1ccc(Br)cc1)N1CCCCCC1,inconclusive: -55.7%
8,Cc1ccc(CNC(=O)C2CCN(S(=O)(=O)c3c(C)noc3/C=C/N(C)C)CC2)cc1,active: -63.7%
9,CCn1c(=O)c(C(=O)NNC(=O)c2ccccc2Cl)c(O)c2ccccc21,inconclusive: -55%
10,COc1ccc(Cn2c(=O)c3oc4ccccc4c3n(Cc3ccc(F)cc3)c2=O)cc1,inactive: -11.3%
11,CC(O)C(NS(=O)(=O)c1ccc(Cl)cc1)C(=O)OCC(=O)c1c[nH]c2ccccc12 (stereo not drawn),inconclusive: -41.7%
12,CCOc1ccccc1NC(=O)COc1coc(CN2CCc3ccccc3C2)cc1=O,inactive: -5.1%
13,N#Cc1c(C(F)(F)F)cc(-c2ccccc2Cl)[nH]c1=O,active: -110%
14,O=S(=O)(Nc1cccc(-c2ccc(N3CCCCCC3)nn2)c1)c1cccc(F)c1,inactive: -15.4% and inactive: 11.3%
15,O=C1CCSC2(C(=O)N(Cc3ccc(F)cc3)c3ccccc32)N1c1ccc(F)c(F)c1 (stereo not drawn),active: -72%
16,CCCCN(Cc1cc2cc(OC)ccc2[nH]c1=O)S(=O)(=O)c1ccc(C)cc1,inconclusive: -50.8%
17,NC(=O)CSc1nc2scc(-c3ccco3)c2c(=O)n1-c1ccccc1,inconclusive: -53%
18,CCn1c(CNc2cccc(C(F)(F)F)c2)n[nH]c1=S,active: -110%
19,COc1ccc(OC)c(CNC(=O)c2cc(=O)[nH]c3ccc(S(=O)(=O)N4CCCCC4C)cc23)c1 (stereo not drawn),inactive: 1.08%
20,Cc1ccc(C(=O)N2c3nc(-c4ccco4)nn3C3(CCCCC3)[C@@H]3CCCC[C@@H]32)cc1,inconclusive: -54.8%
21,CC(=O)Nc1ccccc1OC(C)C(=O)N1CC(C)CC(C)C1 (stereo not drawn),inconclusive: -46.9%

row,SMILES,"activity change, negative = inhibition"
1,O=C(Cn1nnc(-c2ccccc2)n1)N=Nc1c(O)[nH]c2ccccc12,inactive: -4.17%
2,Cc1ccc(-n2cc(-c3ccccc3)c3c(N4CCN(C)CC4)ncnc32)cc1,inconclusive: -44.4%
3,CC(C)(C)C(=O)COC(=O)c1cc(-c2ccncc2)nc2ccccc12,active: -67.3%
4,COc1ccc(NC(=O)c2cc3ccccc3o/c2=N\NS(=O)(=O)c2ccc(C)cc2)cc1,inactive: 8.63%
5,CC(C)C(CCNC1CCN(C)CC1)c1ccc(Cl)cc1 (stereo not drawn),inconclusive: -51.2%
6,CN(C)CCNC(=O)/C(=C/c1ccc(-c2ccc(Cl)cc2Cl)o1)NC(=O)c1ccccc1,active: -69.8%
7,O=C(CN1C(=O)C2CCCCC2C1=O)Nc1ccccc1N1CCCC1 (stereo not drawn),active: -98.7%
8,O=C1Nc2ccc(Br)cc2/C1=C/C(=O)c1ccccc1,active: -82.5%
9,Cc1ccc(S(=O)(=O)CCC(=O)NCCC2=CCCCC2)cc1,inconclusive: -43.4%
10,O=C(Cn1cc(SCc2ccc(Cl)cc2)c2ccccc21)N1CCCC1,inconclusive: -44.9%
11,COc1cc2c(N3CCN(C(=O)Nc4ccc(OC(C)C)cc4)CC3)ncnc2cc1OCCCN1CCCCC1,inactive: 14%
12,CCCCn1c(NS(=O)(=O)c2ccccc2)c(S(=O)(=O)c2ccc(C)cc2)c2nc3ccccc3nc21,inactive: -4.74%
13,Cc1ccc(NC(=O)CN2CC(C)SC2=NC2CCCCC2)cc1 (stereo not drawn),inconclusive: -59.4%
14,CCOC(=O)CNC(=O)CSc1nc2c(C)cccc2cc1CC,inactive: 15.2%
15,O=c1oc(-c2ccccc2)cc(Cl)c1Cl,inconclusive: -41.9%
16,CCSc1nc2sccc2c(=O)n1-c1ccccc1,inconclusive: -43.5%
17,CCCCNC(=O)c1cnn2c(C)c(Cc3c(C)cc(C)cc3C)c(C)nc12,active: -60.9%
18,Cc1ccc(OC(=O)c2ccccc2)cc1C,inactive: -27.2%
19,CCOC(=O)C1CCN(C(=O)c2ccc(OCC(=O)N3CCOCC3)c(OC)c2)CC1,inconclusive: -40.4%
20,CCn1c(CSc2ncn[nH]2)nc2cc(C(=O)O)ccc21,inactive: -3.74%
21,CCOC(=O)c1csc(Nc2nc3ccc(F)cc3s2)n1,inconclusive: -54.6%

row,SMILES,"activity change, negative = inhibition"
1,COc1ccc(OC)c(/C=C2\S/C(=N/NC(=O)c3ccc4ccccc4c3)NC2=O)c1,inconclusive: -41.1%
2,Cc1cccc(C)c1OCC(O)CN(Cc1ccccc1O)C1CCCCC1 (stereo not drawn),inconclusive: -45.2%
3,CCOc1cc(/C=C2\C(=O)N(c3nc(-c4ccc(Br)cc4)cs3)N=C2c2ccccc2)ccc1O,inconclusive: -59.2%
4,COc1ccc(N2CCN(C(=O)[C@@H](NC(=O)c3ccccc3Cl)C(C)C)CC2)cc1,inactive: -6.68%
5,COc1ccc2nc(-n3c(O)c(C4=c5ccccc5=NC4=O)[nH]c3=S)sc2c1,inconclusive: -43.5%
6,CCOc1ccc(CCNC(=O)c2c3c(nc4ccccc24)C(=O)N(C2CCCCC2)C3)cc1,inconclusive: -49.8%
7,Cc1ccc(-c2csc(NS(=O)(=O)c3cccc(F)c3)n2)o1,active: -75.1%
8,COc1ccc(Cl)cc1NC(=O)CN(C)C(=O)CN1C(=O)NC(C)(c2ccc3ccccc3c2)C1=O (stereo not drawn),inactive: -7.34%
9,Cn1nc(C(F)(F)F)c(-c2ccc(F)cc2)c1NC(=O)Nc1ccc(F)cc1,inactive: -16.3%
10,O=C1C[C@H]2[C@H](CO)[C@@H](OC(=O)c3ccc(-c4ccccc4)cc3)C[C@H]2O1,inactive: -22.2%
11,CN(C)CCC1(C2=CCCC2)CC/C(=C/c2ccc(Cl)cc2)C1=O (stereo not drawn),active: -73.2%
12,CCC1CCCCN1CCCNC(=O)c1ccc2c(c1)N(Cc1cccc(Cl)c1)C(=O)c1ccccc1S2(=O)=O (stereo not drawn),inactive: -24.4%
13,O=C(O)c1cccc(NC(=O)c2ccc3c(c2)C(=O)N(CC2CCCO2)C3=O)c1 (stereo not drawn),inactive: 0.273%
14,O=C(/C=C/c1ccncc1)c1ccc(NC(=O)c2ccccc2F)cc1,inconclusive: -56.2%
15,Oc1ccc(/C=N/Nc2ccc(C(F)(F)F)cn2)cc1O,active: -72.1%
16,COc1cc(C(=O)Nc2cc(C)nn2-c2ccccc2)cc(OC)c1OC,inconclusive: -47.1%
17,COc1cccc(C(=O)Nc2cccc(C(=O)OCc3cc(=O)n4nc(C5CC5)sc4n3)c2)c1,inactive: -4.42%
18,CC(=O)Nc1ccc(S(=O)(=O)NC(C(=O)O)C(C)C)cc1 (stereo not drawn),inactive: -4.09%
19,COc1ccc(C(=O)N=C2SC3CS(=O)(=O)CC3N2c2ccc(N(C)C)cc2)cc1OC (stereo not drawn),active: -75.8%
20,COCCn1c(-c2ccccc2Cl)nc2c(c(=O)c3ccccc3n2C)c1=O,inactive: 5.18%
